{"source": "PubChem BioAssay AID504333", "about": "(National Center for Advancing Translational Sciences (NCATS), 2011)", "note": "The whole screen tested about 360,000 compounds, of which about 16,000 (4.4%) were called active. Inconclusive results, whose numbers are uncertain, are shown with a selection of clear calls. Calls come from the whole dose curve; as a rule, active = well fitted inhibition curve with a large enough effect; inconclusive = small, poorly fitted or top-dose-only effect; inactive = no such curve, though single readings can be large or run the other way. Potencies of inconclusive entries are doubtful fits and often do not repeat. % is set by controls: 0 for no effect and ±100 for the full control effect; potency is the fitted concentration of half-maximal effect; tags give direction and shape of the fitted curve.", "data": [{"target": "Bromodomain adjacent to zinc finger domain protein 2B (Homo sapiens) (UniProt Q9UIF8)", "sequence (Q9UIF8 whole entry, looked up, the tested form may be a part)": "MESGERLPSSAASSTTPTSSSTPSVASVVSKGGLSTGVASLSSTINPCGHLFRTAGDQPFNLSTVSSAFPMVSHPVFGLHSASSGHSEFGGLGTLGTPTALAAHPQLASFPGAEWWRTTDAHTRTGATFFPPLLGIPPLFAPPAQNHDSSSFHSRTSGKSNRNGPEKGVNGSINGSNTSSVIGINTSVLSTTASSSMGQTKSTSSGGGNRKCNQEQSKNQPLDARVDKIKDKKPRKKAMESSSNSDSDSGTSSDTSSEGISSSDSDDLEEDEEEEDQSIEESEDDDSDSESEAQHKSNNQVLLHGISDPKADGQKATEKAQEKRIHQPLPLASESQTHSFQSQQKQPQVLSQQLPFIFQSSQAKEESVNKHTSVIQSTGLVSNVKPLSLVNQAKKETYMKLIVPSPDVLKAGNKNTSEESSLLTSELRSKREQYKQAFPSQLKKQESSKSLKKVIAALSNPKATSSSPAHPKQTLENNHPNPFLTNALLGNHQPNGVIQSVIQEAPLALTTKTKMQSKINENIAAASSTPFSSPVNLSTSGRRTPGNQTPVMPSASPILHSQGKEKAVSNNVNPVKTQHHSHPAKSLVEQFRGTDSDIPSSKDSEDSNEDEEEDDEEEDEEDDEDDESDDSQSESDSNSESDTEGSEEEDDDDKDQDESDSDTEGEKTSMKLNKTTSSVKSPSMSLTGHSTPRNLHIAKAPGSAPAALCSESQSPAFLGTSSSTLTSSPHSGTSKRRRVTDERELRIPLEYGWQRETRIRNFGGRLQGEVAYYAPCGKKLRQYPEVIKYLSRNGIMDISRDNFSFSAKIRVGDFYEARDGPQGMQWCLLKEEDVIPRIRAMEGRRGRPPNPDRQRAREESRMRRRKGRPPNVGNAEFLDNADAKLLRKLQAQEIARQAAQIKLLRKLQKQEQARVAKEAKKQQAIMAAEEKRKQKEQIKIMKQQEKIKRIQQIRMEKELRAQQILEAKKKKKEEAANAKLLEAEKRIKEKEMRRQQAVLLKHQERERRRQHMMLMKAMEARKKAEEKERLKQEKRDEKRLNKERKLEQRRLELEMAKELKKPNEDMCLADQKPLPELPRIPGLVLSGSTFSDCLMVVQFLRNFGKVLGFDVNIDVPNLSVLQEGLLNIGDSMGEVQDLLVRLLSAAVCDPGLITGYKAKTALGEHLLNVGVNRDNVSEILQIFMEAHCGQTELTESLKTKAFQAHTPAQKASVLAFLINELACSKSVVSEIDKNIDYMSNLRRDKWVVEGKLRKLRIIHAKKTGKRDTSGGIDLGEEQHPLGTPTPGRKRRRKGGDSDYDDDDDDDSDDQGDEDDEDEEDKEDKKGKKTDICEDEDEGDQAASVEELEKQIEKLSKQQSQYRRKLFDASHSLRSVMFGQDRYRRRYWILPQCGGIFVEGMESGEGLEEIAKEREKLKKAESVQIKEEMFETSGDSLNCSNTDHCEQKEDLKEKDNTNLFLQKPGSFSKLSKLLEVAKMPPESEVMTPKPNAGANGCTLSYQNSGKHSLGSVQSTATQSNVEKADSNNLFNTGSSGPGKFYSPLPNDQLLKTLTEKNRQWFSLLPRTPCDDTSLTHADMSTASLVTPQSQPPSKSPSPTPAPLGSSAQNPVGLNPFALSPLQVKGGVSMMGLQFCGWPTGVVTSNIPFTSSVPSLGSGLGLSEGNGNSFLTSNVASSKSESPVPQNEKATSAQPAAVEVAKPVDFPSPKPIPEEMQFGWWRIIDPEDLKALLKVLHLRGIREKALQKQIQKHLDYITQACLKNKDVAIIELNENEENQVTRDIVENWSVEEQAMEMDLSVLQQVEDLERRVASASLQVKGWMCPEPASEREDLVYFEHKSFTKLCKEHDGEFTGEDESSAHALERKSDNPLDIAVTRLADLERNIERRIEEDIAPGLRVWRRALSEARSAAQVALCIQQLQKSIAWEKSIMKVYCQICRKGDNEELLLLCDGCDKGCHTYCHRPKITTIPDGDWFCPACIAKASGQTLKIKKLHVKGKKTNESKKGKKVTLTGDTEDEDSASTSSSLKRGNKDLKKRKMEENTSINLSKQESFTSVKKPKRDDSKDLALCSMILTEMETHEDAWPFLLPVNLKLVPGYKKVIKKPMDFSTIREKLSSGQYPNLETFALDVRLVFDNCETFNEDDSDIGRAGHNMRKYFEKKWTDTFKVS", "assay": "qHTS Assay for Inhibitors of BAZ2B; note: nearly all actives have a fitted effect of over 60% in size", "settings": "AlphaScreen BAZ2B-H3K14Ac peptide displacement; activity change, negative = inhibition: at 114 µM (top of the series)", "how_it_was_run": "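In this displacement format the biotinylated H3(5-23) peptide acetylated at Lys14 serves as ligand at 50 nM, with BAZ2B at 50 nM in PBS pH 7.4 containing 0.01% Tween-20. Donor and acceptor beads are 10 ug/mL final.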", "values": [{"molecule": "Cn1c(=O)oc2cc(S(=O)(=O)CCC(=O)Nc3ccccc3)ccc21", "Potency": "inactive"}, {"molecule": "CCOc1ccccc1NC(=O)NCCN1CCCCC1", "Potency": "inactive"}, {"molecule": "COc1ccc(C(=O)Nc2ccccc2C(=O)O)cc1NC(=O)C(c1ccccc1)c1ccccc1", "Potency": "inconclusive: 79.4 µM [inhibitor, single point]"}, {"molecule": "O=C(Cc1ccc(Cl)cc1)NCCS(=O)(=O)N1CCN(c2ccccc2)CC1", "Potency": "inactive"}, {"molecule": "COc1ccc(C(=O)N2CCN(C(=O)COc3ccc(Br)cc3)CC2)cc1OC", "Potency": "inactive"}, {"molecule": "OCC1(Cc2cccc(Cl)c2)CCCN(Cc2sc(N3CCCC3)nc2Cl)C1", "note": "(centres undefined)", "Potency": "inconclusive: 50.1 µM [inhibitor, partial curve]"}, {"molecule": "O=C(OC(C(=O)NC1CCCCC1)c1ccccn1)c1cccs1", "note": "(centres undefined)", "Potency": "inactive"}, {"molecule": "COc1ccc(NC(=O)CN(c2cccc(C)c2C)S(=O)(=O)c2ccccc2)cc1OC", "Potency": "inconclusive: 25.1 µM [inhibitor, full curve]"}, {"molecule": "CC(C)c1ccc(NC(=O)C(c2ccc3c(c2)OCO3)N2CCN(C(=O)c3ccco3)CC2)cc1", "note": "(centres undefined)", "Potency": "inconclusive: 89.1 µM [inhibitor, single point]"}, {"molecule": "COC(=O)c1cc(=O)n(Cc2cccs2)c(=Nc2ccc(F)cc2)s1", "Potency": "inconclusive: 31.6 µM [inhibitor, partial curve]"}, {"molecule": "NS(=O)(=O)c1cccc2c1c([N+](=O)[O-])cc1nc(O)c(O)nc12", "Potency": "inactive"}, {"molecule": "COc1ccccc1CN1CCCC(N2CCN(c3ccccc3OC)CC2)C1", "note": "(centres undefined)", "Potency": "inactive"}, {"molecule": "COc1ccc(N2CCN(C(=O)c3cccc(S(=O)(=O)N4CCCc5ccccc54)c3)CC2)cc1", "Potency": "inconclusive: 39.8 µM [inhibitor, full curve]"}, {"molecule": "CCc1ccc2nc(N(Cc3cccnc3)C(=O)c3cccs3)sc2c1", "Potency": "inactive"}, {"molecule": "Cc1cc(C=C2C(=O)c3ccccc3C2=O)c(C)n1-c1cccc(C(=O)O)c1", "Potency": "inconclusive: 70.8 µM [inhibitor, single point]"}, {"molecule": "Cc1ccc(/C=C/C2=Cc3c(sc(NC(=O)CSc4n[nH]c(N)n4)c3C#N)C(C)(C)C2)o1", "Potency": "inconclusive: 50.1 µM [inhibitor, partial curve]"}, {"molecule": "O=C(CCl)c1ccc2[nH]c(=O)oc2c1", "Potency": "inconclusive: 79.4 µM [inhibitor, single point]"}, {"molecule": "Cc1cc(C)cc(N2C(=O)CC(Sc3nnnn3-c3ccccc3)C2=O)c1", "note": "(centres undefined)", "Potency": "inconclusive: 79.4 µM [inhibitor, single point]"}, {"molecule": "COc1ccc(C(=O)COC(=O)c2cnc(C)cn2)c(OC)c1", "Potency": "inactive"}, {"molecule": "COc1ccc(CN2CCSCC2)cc1C", "Potency": "active: 79.4 µM"}, {"molecule": "COc1cccc(OCc2cc(C(=O)NC(C)c3cnn(C)c3C)no2)c1", "note": "(centres undefined)", "Potency": "inactive"}, {"molecule": "CCC1(C)N=C(c2ccc3c(c2)OCO3)CC(c2ccccc2O)N1", "note": "(centres undefined)", "Potency": "inconclusive: 56.2 µM [inhibitor, partial curve]"}, {"molecule": "COc1ccc2c(CC(=O)N(C)CC3COc4ccccc4O3)coc2c1", "note": "(centres undefined)", "Potency": "inconclusive: 79.4 µM [inhibitor, single point]"}, {"molecule": "O=C(CCCn1c(=S)[nH]c2ccsc2c1=O)NCCc1ccccc1", "Potency": "inactive"}, {"molecule": "O=C(COc1ccc(Br)cc1Cl)NNC(=O)c1ccccc1", "Potency": "inactive"}, {"molecule": "CC1CN(c2ncnc3c2c(-c2ccccc2)cn3-c2ccc(F)cc2)CC(C)O1", "note": "(centres undefined)", "Potency": "inconclusive: 44.7 µM [inhibitor, partial curve]"}, {"molecule": "O=C(CSc1n[nH]c(-c2ccccc2)n1)c1ccc(O)c(O)c1", "Potency": "active: 44.7 µM"}, {"molecule": "CC(C)(C)c1ccc(Cn2nnc3c(=O)[nH]c(C4CCCN(C(=O)c5ccco5)C4)nc32)cc1", "note": "(centres undefined)", "Potency": "inconclusive: 50.1 µM [inhibitor, partial curve]"}, {"molecule": "CCn1c(=O)n(CC)c2cc(N3CCCC3)c(NC(=O)c3c(F)cccc3F)cc21", "Potency": "inconclusive: 39.8 µM [inhibitor, partial curve]"}, {"molecule": "COc1cccc(C(=O)N2CCC(N3CCN(Cc4ccc(F)cc4)C(=O)C3=O)CC2)c1", "Potency": "inactive"}, {"molecule": "O=S(=O)(c1cccs1)N1CN(Cc2ccco2)c2nc3ccccc3nc21", "Potency": "inconclusive: 50.1 µM [inhibitor, partial curve]"}, {"molecule": "Cc1ccc(C2=[N+]([O-])C3(CCCCC/C3=N\\NC(N)=S)N(O)C2(C)C)o1", "note": "(centres undefined)", "Potency": "inconclusive: 7.08 µM [inhibitor, single point]"}, {"molecule": "CCOc1ccc(N2C(=O)CC(N3CCN(C(=O)CN4CCCC4)CC3)C2=O)cc1", "note": "(centres undefined)", "Potency": "inactive"}, {"molecule": "CCc1c(C)nc(SCC(=O)N2CCc3ccccc32)[nH]c1=O", "Potency": "inconclusive: 89.1 µM [inhibitor, single point]"}, {"molecule": "COCCNc1cc(N2CCN(C3CCCCC3)CC2)c2noc3c2c1C(=O)c1ccccc1-3", "Potency": "inconclusive: 39.8 µM [inhibitor, partial curve]"}, {"molecule": "COc1cc2c3c(c1)/C(=C1/SC(NC(C)=O)=NC1=O)C(=O)N3C(C)(C)C=C2C", "Potency": "active: 20 µM"}, {"molecule": "c1ccc(CSc2nnc3c4ccccc4c4ccccc4c3n2)cc1", "Potency": "inconclusive: 79.4 µM [inhibitor, single point]"}, {"molecule": "O=C(CCSc1ccc(F)cc1)NNC(=O)c1ccccc1Cl", "Potency": "inactive"}, {"molecule": "CCCCN(C(=O)c1ccc(N2CCCC2=O)cc1)c1c(N)n(CCC)c(=O)[nH]c1=O", "Potency": "inactive"}, {"molecule": "COc1ccccc1NCCC(=O)OCC(=O)Nc1ccc(Cl)cn1", "activity change, negative = inhibition": "inconclusive: -42.3% [inhibitor]"}, {"molecule": "O=C(Nc1sc2c(c1C(=O)O)CCC2)c1ccccc1", "Potency": "active: 79.4 µM"}, {"molecule": "O=C(c1ccco1)N(CCC(c1ccccc1)c1ccco1)Cc1ccco1", "note": "(centres undefined)", "Potency": "active: 28.2 µM"}, {"molecule": "COc1cccc(N(CC(=O)NCCSCc2ccco2)S(=O)(=O)c2ccccc2)c1", "Potency": "inconclusive: 70.8 µM [inhibitor, single point]"}, {"molecule": "c1ccc(Cc2ccc(OCCn3ccnc3)cc2)cc1", "activity change, negative = inhibition": "inconclusive: -61.5% [inhibitor]"}, {"molecule": "Cc1csc(=Nc2ccccc2)n1Cc1ccco1", "Potency": "active: 63.1 µM"}, {"molecule": "O=[N+]([O-])c1ccccc1N/N=C1\\CCc2ccccc21", "Potency": "inconclusive: 50.1 µM [inhibitor, partial curve]"}, {"molecule": "COc1ccc(C(=O)NC(=S)N(Cc2ccccc2)Cc2ccccc2)cc1", "Potency": "active: 8.91 µM"}, {"molecule": "CCc1ccccc1NC(=S)N1CCC(C(=O)c2ccc(F)cc2)CC1", "Potency": "inconclusive: 56.2 µM [inhibitor, partial curve]"}, {"molecule": "O=C1CCc2cc(S(=O)(=O)N3CCCCC3)cc3c2N1CC3", "Potency": "inconclusive: 70.8 µM [inhibitor, single point]"}, {"molecule": "Cc1cccc(N2CCN(C(=O)c3ccc4nc[nH]c4c3)CC2)c1C", "Potency": "inactive"}, {"molecule": "COc1cc(/C=C2/C(=O)NN(c3ccc(C)c(Cl)c3)C2=O)cc([N+](=O)[O-])c1O", "Potency": "active: 31.6 µM"}, {"molecule": "O=c1c2cc3c(cc2n(Cc2cccc(F)c2)c(=O)n1Cc1nc(-c2ccccc2)no1)OCO3", "Potency": "inactive"}, {"molecule": "CC(=O)c1cccc(NC(=O)c2sc3nc4c(cc3c2N)CCCC4)c1", "Potency": "inconclusive: 89.1 µM [inhibitor, single point]"}, {"molecule": "Cc1ccc(-n2c(CNc3ccc(F)cc3)nnc2SCC(=O)N2CCCC2)cc1", "Potency": "inconclusive: 89.1 µM [inhibitor, single point]"}, {"molecule": "COc1ccc2c([N+](=O)[O-])c(Cl)[nH]c2c1", "Potency": "active: 79.4 µM"}, {"molecule": "c1ccc(N2CCN(C3CCSC3)CC2)cc1", "note": "(centres undefined)", "Potency": "inconclusive: 89.1 µM [inhibitor, single point]"}, {"molecule": "Cc1cccc(NC(=O)C2CC(=O)OC23CCCC3)c1", "note": "(centres undefined)", "Potency": "inconclusive: 89.1 µM [inhibitor, single point]"}, {"molecule": "Cc1cc2nc(-c3ccc(SCC(=O)NC(C)C)nc3)[nH]c2cc1C", "Potency": "inconclusive: 100 µM [inhibitor, partial curve]"}, {"molecule": "Cc1cccc(/C=C/c2onc(C)c2S(=O)(=O)N2CCC(C(=O)N3CCCCCC3)CC2)c1", "Potency": "inactive"}, {"molecule": "c1ccc(-c2cnc(SCCN3CCOCC3)n2CC2CCCO2)cc1", "note": "(centres undefined)", "Potency": "active: 20 µM"}, {"molecule": "Nc1ccc(Nc2cc(O)c3ncccc3c2)cc1", "Potency": "active: 7.08 µM"}, {"molecule": "CC(=O)Nc1ccc(C(=O)Nc2nc(-c3cc(C)n(Cc4ccccc4)c3C)cs2)cc1", "Potency": "inconclusive: 89.1 µM [inhibitor, single point]"}, {"molecule": "NC(=O)c1ccc(Oc2ccc3c(c2)CCC3)c([N+](=O)[O-])c1", "Potency": "inconclusive: 79.4 µM [inhibitor, single point]"}, {"molecule": "CC(C)N(C(C)C)S(=O)(=O)c1ccc(N2CCc3ccccc3C2)nc1", "Potency": "inactive"}, {"molecule": "Cc1nnsc1C(=O)NNC(=O)c1cccc2ccccc12", "Potency": "inactive"}, {"molecule": "O=C(O)/C(=C\\c1ccc(-c2ccccc2[N+](=O)[O-])o1)c1ccccc1", "Potency": "inconclusive: 50.1 µM [inhibitor, partial curve]"}, {"molecule": "Cc1ccc(NC(=O)[C@@H](c2ccccc2)N2Cc3ccccc3C2=O)cc1F", "Potency": "inactive"}, {"molecule": "S=C(NCc1ccco1)Nc1cccc(Cl)c1", "Potency": "inconclusive: 89.1 µM [inhibitor, single point]"}, {"molecule": "CCN(CC)c1ccc(NC(=O)c2cnc3ccccn3c2=O)c(C)c1", "Potency": "inconclusive: 50.1 µM [inhibitor, partial curve]"}, {"molecule": "O=C(CSC1=NCCS1)Nc1nc2c(s1)CCCC2", "Potency": "inconclusive: 63.1 µM [inhibitor, partial curve, poor fit]"}, {"molecule": "CN(C)c1ccc(/C=N/NC(=O)CCCO)cc1", "Potency": "inconclusive: 89.1 µM [inhibitor, partial curve]"}, {"molecule": "CSc1ccc(C(c2c(C(=O)O)[nH]c3ccccc23)c2c(C(=O)O)[nH]c3ccccc23)cc1", "Potency": "active: 50.1 µM"}, {"molecule": "Cc1ccc(-n2ncc3c(NNC(=O)c4ccco4)ncnc32)c(C)c1", "Potency": "inactive"}, {"molecule": "OCCC1CN(CC2CCCCC2)CCN1CC1CCCCC1", "note": "(centres undefined)", "Potency": "inconclusive: 89.1 µM [inhibitor, single point]"}]}]}
